# For some assays here: Most of the strong results are listed elsewhere, so they are rarer here than in the full data. The list shows a part of the results, in another mix than the full data.
# Tests used:
# [1] = biological target: T1, Inhibitor of nuclear factor kappa-B kinase subunit epsilon (Homo sapiens) (UniProt Q14164); settings: at 1 µM;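 further: reported values are averaged percent inhibition figures against human IKKε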
# T1 sequence (whole entry): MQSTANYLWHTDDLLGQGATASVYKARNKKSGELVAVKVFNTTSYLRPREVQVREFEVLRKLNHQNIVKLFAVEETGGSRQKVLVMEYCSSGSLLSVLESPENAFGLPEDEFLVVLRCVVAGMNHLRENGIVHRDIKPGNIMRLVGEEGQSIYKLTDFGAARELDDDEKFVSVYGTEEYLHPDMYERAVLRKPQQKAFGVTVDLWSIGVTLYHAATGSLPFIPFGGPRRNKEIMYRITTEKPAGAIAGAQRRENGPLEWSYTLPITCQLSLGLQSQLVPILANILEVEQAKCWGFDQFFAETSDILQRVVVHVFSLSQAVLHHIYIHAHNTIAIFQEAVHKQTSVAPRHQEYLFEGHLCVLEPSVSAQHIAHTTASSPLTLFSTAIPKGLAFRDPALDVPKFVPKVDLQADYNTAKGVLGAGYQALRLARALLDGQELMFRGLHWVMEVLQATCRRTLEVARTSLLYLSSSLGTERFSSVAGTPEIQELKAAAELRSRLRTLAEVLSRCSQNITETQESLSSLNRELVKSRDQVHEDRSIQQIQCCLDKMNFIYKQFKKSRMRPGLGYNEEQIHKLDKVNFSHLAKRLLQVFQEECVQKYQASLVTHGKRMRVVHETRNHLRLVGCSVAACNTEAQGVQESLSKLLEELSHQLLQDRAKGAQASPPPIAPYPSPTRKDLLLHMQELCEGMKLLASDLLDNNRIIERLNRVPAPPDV
# [2] = biological target: T2, Serine/threonine-protein kinase Nek1 (Homo sapiens) (UniProt Q96PY6); settings: at 0.1 µM
# T2 sequence (whole entry): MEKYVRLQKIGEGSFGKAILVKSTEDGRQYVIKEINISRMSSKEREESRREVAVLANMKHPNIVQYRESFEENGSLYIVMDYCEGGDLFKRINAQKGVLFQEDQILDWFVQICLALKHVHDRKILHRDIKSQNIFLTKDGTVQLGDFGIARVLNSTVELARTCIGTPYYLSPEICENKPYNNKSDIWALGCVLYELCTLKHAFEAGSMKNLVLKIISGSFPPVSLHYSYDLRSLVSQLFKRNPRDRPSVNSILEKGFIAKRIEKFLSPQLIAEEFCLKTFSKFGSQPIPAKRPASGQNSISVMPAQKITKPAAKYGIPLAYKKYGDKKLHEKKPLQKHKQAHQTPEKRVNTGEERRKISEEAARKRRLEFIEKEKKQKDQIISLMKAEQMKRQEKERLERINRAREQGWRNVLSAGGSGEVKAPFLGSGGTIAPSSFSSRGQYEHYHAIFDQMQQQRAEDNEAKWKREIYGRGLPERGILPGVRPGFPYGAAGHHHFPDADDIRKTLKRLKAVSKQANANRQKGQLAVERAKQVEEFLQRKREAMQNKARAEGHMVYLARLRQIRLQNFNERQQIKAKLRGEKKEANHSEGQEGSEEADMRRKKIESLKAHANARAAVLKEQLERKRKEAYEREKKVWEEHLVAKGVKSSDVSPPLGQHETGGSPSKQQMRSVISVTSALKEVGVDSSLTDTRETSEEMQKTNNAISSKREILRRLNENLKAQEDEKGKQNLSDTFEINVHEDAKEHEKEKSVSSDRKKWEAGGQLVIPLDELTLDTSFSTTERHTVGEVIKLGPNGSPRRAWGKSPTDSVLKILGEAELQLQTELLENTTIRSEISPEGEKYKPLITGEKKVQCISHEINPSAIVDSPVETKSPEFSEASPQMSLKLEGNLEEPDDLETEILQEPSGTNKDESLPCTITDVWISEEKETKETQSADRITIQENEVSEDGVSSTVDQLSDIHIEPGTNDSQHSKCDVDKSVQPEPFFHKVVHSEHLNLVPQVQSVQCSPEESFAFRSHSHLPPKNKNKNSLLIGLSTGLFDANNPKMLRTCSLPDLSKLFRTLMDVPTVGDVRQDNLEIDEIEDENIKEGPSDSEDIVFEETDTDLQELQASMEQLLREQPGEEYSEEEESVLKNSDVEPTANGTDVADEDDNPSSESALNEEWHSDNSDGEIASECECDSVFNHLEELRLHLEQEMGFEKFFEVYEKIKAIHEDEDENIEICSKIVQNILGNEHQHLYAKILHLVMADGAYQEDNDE
# [3] = biological target: T2, Serine/threonine-protein kinase Nek1 (Homo sapiens); settings: at 1 µM
# [4] = biological target: T3, Serine/threonine-protein kinase Nek2 (Homo sapiens) (UniProt P51955); settings: at 0.1 µM
# T3 sequence (whole entry): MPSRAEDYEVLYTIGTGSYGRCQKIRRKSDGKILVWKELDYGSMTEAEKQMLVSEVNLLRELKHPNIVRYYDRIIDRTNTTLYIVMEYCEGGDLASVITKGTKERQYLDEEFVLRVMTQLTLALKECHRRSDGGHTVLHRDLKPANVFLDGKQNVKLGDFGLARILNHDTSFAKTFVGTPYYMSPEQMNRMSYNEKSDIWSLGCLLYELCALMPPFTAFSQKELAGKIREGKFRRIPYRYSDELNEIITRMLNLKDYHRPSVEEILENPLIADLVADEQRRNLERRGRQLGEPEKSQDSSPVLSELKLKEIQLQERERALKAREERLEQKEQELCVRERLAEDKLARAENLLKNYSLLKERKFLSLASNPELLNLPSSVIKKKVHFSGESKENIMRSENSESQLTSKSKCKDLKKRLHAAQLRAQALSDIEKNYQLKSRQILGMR
# [5] = biological target: T3, Serine/threonine-protein kinase Nek2 (Homo sapiens); settings: at 1 µM
# [6] = biological target: T4, Serine/threonine-protein kinase Nek6 (Homo sapiens) (UniProt Q9HC98); settings: at 0.1 µM
# T4 sequence (whole entry): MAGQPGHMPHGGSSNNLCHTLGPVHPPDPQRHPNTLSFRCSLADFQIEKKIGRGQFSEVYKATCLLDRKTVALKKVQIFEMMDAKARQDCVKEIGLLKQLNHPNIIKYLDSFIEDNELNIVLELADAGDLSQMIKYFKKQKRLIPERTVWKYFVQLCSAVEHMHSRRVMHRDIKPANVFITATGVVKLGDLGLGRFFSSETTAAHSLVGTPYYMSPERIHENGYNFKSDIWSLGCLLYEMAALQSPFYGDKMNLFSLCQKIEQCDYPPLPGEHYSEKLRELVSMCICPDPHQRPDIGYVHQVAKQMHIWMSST
# [7] = biological target: T4, Serine/threonine-protein kinase Nek6 (Homo sapiens); settings: at 1 µM
# [8] = biological target: Serine/threonine-protein kinase Nek7 (Homo sapiens) (UniProt Q8TDX7); settings: at 0.1 µM
# Chain of UniProt Q8TDX7 (Q8TDX7 whole entry, looked up): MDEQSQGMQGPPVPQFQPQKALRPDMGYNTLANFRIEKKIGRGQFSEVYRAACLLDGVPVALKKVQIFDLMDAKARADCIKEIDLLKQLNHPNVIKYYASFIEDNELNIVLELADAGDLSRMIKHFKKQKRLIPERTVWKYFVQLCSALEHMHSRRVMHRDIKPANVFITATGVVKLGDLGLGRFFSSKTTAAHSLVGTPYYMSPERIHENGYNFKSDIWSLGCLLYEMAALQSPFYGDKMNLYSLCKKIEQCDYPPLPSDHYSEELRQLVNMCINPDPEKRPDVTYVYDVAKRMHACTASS
# [9] = biological target: Serine/threonine-protein kinase Nek7 (Homo sapiens) (UniProt Q8TDX7); settings: at 1 µM
# [10] = biological target: T5, Serine/threonine-protein kinase Nek9 (Homo sapiens) (UniProt Q8TD19); settings: at 0.1 µM
# T5 sequence (whole entry): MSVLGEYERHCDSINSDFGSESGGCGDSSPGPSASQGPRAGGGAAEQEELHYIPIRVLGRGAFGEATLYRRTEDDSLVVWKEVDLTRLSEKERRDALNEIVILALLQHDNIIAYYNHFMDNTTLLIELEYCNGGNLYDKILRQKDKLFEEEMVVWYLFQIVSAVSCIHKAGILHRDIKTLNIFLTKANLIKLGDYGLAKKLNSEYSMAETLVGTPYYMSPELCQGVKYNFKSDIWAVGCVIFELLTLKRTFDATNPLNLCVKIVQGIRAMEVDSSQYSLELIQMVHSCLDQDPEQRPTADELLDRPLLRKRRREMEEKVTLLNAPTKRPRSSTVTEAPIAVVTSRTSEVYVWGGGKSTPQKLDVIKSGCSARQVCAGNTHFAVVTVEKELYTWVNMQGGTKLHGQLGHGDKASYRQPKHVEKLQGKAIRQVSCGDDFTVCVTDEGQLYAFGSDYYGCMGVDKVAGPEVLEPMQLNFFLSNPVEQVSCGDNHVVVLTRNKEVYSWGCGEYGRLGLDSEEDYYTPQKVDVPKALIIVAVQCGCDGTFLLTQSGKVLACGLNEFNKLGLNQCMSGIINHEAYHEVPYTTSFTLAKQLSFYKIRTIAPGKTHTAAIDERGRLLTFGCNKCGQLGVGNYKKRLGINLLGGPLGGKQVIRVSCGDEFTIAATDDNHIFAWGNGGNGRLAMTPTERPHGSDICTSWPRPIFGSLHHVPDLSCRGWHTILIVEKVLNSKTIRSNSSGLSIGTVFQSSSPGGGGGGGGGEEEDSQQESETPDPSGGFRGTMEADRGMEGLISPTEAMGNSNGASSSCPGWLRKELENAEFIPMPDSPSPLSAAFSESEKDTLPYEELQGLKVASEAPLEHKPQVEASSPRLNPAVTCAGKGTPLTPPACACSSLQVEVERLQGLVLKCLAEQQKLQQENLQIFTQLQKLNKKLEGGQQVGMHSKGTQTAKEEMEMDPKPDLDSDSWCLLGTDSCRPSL
# [11] = biological target: T5, Serine/threonine-protein kinase Nek9 (Homo sapiens); settings: at 1 µM
# [12] = biological target: Serine/threonine-protein kinase PLK1 (Homo sapiens) (UniProt P53350); settings: at 0.1 µM
# Chain of UniProt P53350 (P53350 whole entry): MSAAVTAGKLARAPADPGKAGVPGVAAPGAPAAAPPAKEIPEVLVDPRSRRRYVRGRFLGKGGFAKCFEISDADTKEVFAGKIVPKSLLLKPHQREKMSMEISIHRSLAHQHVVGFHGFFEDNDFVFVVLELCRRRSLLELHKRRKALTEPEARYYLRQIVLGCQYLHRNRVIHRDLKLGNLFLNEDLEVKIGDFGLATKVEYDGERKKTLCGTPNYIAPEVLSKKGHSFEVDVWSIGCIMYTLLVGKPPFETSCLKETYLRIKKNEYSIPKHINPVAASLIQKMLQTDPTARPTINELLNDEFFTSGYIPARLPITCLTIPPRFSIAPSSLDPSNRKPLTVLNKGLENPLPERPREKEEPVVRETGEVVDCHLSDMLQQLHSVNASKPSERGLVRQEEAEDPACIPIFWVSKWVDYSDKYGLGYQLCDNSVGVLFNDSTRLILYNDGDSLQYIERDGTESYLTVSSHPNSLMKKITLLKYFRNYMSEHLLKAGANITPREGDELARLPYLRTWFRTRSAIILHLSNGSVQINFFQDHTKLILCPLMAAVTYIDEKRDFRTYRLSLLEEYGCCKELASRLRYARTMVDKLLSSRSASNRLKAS
# [13] = biological target: Serine/threonine-protein kinase PLK1 (Homo sapiens) (UniProt P53350); settings: at 1 µM
# [14] = biological target: T6, Dual specificity protein kinase TTK (Homo sapiens) (UniProt P33981); settings: at 0.1 µM
# T6 sequence (whole entry): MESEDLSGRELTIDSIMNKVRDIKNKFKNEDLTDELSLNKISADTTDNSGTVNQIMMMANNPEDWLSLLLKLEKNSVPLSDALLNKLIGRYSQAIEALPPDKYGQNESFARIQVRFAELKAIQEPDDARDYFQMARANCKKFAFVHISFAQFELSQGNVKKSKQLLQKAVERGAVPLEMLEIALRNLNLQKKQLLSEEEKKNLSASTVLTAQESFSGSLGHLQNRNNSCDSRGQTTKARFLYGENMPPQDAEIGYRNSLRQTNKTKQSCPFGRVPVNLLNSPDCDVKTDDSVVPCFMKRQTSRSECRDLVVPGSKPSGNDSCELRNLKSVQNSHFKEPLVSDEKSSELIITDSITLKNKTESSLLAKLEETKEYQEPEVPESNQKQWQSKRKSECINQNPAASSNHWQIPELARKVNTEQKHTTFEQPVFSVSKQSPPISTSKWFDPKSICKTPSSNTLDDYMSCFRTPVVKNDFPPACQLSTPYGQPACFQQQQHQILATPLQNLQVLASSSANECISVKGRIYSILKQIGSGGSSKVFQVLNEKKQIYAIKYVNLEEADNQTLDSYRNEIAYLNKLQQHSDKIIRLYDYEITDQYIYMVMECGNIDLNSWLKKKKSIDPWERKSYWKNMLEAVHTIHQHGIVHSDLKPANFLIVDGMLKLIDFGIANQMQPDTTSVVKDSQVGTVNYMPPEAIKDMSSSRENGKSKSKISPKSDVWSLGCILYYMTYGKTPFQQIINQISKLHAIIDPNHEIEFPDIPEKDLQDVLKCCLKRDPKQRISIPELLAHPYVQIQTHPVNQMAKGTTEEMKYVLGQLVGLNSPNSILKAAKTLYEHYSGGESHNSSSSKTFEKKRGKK
# [15] = system: T7, Receptor-type tyrosine-protein kinase FLT3 (Homo sapiens), P36888 [D835Y]; settings: at 1 µM
# T7 sequence (whole entry): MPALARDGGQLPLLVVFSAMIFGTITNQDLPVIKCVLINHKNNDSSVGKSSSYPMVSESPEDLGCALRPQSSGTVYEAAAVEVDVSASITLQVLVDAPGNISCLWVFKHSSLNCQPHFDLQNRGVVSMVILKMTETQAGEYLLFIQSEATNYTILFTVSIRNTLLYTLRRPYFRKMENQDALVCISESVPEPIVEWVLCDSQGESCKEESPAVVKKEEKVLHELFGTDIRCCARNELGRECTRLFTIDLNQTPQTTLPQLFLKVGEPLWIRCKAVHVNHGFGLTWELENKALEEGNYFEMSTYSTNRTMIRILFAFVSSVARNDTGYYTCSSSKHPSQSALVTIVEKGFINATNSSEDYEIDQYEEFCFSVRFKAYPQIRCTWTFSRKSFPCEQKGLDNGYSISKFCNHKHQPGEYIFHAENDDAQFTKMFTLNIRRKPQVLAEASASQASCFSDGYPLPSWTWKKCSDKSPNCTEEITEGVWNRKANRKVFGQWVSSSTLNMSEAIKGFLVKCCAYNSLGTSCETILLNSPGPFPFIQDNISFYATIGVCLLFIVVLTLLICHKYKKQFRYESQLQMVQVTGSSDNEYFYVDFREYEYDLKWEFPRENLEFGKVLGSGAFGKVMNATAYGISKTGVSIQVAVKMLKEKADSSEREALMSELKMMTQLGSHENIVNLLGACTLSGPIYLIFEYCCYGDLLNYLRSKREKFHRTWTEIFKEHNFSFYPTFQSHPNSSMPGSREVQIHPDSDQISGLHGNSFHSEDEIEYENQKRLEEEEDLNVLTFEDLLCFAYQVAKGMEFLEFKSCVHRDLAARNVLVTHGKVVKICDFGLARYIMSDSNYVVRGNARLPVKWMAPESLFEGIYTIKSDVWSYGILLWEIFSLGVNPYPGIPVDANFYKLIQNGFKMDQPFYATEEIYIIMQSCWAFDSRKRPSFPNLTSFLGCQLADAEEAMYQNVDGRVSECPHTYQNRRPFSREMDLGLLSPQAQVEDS
# [16] = biological target: Vascular endothelial growth factor receptor 3 (Homo sapiens) (UniProt P35916); settings: at 0.1 µM
# Chain of UniProt P35916 (P35916 whole entry): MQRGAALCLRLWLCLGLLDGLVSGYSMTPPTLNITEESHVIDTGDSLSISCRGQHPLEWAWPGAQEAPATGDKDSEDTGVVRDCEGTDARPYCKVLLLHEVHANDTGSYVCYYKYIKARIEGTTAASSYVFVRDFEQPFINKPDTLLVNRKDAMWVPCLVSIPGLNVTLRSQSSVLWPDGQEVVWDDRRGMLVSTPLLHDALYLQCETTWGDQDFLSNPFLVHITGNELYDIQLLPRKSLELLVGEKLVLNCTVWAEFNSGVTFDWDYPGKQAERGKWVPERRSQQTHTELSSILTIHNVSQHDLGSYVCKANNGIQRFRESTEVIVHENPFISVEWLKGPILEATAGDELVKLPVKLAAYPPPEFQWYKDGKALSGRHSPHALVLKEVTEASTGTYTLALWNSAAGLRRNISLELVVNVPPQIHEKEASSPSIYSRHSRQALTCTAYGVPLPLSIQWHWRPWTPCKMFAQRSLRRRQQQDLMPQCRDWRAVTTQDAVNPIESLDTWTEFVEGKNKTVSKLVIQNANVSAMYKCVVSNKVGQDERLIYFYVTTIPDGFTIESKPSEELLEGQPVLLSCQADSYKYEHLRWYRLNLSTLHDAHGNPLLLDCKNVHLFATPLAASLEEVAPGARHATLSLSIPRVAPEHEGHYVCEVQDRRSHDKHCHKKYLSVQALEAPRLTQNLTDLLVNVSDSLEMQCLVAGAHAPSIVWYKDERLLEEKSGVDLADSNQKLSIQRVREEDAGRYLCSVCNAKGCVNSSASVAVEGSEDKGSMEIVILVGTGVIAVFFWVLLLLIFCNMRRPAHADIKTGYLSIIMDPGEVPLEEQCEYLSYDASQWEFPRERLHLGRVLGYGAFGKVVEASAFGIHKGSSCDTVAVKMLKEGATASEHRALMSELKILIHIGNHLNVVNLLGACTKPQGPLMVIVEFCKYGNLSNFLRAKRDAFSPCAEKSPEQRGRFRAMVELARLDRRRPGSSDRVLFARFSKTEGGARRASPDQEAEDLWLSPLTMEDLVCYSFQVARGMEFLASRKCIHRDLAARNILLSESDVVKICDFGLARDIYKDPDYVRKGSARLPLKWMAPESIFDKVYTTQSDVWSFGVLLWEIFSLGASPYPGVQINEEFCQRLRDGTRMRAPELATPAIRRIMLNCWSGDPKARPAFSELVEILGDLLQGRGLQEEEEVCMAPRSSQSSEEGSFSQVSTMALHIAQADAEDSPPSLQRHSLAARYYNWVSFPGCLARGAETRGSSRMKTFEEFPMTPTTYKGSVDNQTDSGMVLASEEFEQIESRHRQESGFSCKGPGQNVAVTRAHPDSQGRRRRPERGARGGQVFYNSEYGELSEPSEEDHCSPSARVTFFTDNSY
# [17] = biological target: Vascular endothelial growth factor receptor 3 (Homo sapiens) (UniProt P35916); settings: at 1 µM
# [18] = biological target: Macrophage colony-stimulating factor 1 receptor (Homo sapiens) (UniProt P07333); settings: at 0.1 µM
# Chain of UniProt P07333 (P07333 whole entry): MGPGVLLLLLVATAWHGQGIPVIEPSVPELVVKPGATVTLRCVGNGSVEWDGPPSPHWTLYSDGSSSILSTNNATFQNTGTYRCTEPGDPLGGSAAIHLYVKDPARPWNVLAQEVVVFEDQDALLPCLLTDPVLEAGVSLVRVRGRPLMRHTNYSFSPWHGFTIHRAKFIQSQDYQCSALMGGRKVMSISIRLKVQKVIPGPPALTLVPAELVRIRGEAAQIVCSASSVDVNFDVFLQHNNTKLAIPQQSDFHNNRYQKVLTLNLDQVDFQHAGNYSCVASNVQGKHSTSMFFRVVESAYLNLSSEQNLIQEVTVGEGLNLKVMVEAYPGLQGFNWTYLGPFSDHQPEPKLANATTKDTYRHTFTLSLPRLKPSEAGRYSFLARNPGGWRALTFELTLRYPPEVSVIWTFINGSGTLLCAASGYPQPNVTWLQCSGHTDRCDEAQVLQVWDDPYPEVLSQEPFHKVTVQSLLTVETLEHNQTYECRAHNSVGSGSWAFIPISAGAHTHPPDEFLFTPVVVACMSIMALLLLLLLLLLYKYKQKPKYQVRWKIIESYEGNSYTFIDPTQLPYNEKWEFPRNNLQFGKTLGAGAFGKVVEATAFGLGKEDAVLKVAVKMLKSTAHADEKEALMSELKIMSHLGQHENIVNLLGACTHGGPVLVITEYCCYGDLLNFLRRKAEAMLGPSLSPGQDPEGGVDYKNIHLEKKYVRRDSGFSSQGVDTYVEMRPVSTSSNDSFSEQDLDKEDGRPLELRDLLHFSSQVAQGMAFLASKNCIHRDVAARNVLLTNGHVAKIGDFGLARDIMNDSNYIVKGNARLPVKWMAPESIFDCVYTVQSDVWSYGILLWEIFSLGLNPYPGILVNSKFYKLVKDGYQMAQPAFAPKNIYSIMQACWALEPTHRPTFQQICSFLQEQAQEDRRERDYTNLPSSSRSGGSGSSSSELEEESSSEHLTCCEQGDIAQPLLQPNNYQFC
# [19] = biological target: Macrophage colony-stimulating factor 1 receptor (Homo sapiens) (UniProt P07333); settings: at 1 µM
# [20] = biological target: Tyrosine-protein kinase Fyn (Homo sapiens) (UniProt P06241); settings: at 0.1 µM
# Chain of UniProt P06241 (P06241 whole entry, looked up): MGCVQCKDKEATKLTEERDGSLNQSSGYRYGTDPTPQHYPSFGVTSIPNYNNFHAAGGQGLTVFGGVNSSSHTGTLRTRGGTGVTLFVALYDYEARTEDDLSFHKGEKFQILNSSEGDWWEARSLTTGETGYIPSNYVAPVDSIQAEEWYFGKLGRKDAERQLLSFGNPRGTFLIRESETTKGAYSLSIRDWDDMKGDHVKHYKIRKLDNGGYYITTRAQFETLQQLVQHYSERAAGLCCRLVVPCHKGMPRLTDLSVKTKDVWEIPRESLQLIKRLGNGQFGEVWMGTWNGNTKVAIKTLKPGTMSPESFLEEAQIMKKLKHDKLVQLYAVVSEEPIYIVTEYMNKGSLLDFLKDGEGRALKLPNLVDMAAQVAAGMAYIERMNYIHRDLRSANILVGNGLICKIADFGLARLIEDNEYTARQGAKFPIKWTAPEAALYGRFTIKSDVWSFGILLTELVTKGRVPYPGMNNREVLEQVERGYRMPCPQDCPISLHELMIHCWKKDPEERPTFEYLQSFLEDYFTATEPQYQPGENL
compound,measurement,setting,value
Fc1ccc(-c2ncn(C3CCNCC3)c2-c2ccnc(Oc3cccc(C(F)(F)F)c3)n2)cc1,inhibition,[1],6.98%
same,inhibition,[2],1.2%
same,inhibition,[3],3.2%
same,inhibition,[4],5.53%
same,inhibition,[5],6.98%
same,inhibition,[6],0.69%
same,inhibition,[7],2.74%
same,inhibition,[8],3.96%
same,inhibition,[9],6.62%
same,inhibition,[10],4.88%
same,inhibition,[11],4.49%
same,inhibition,[12],3.38%
same,inhibition,[13],3.12%
same,inhibition,[14],15.7%
same,inhibition,[15],-0.56%
same,inhibition,[16],5.59%
same,inhibition,[17],5.6%
same,inhibition,[18],-0.43%
same,inhibition,[19],10.2%
same,inhibition,[20],3.54%

# — ChEMBL document CHEMBL1961873, “Compounds: GSK PKIS; Assays: Nanosyn kinase panel” (2012)
